Article PMC4336329 (PLoS ONE, 2015)
The campaign covered roughly 310,000 compounds. About 14,000 (4.5%) showed an effect of 50% or more. Effects have a minus sign here. Some of the results follow.
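Note: peak tail current of the secondary pulse compared with the same well before compound.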

Each molecule was assayed against human ether-à-go-go-related gene (hERG) potassium channel (human, UniProt Q12809) (assay: primary screen, population patch clamp on CHO cells stably expressing hERG).
Sequence of human ether-à-go-go-related gene (hERG) potassium channel (Q12809 whole entry, looked up): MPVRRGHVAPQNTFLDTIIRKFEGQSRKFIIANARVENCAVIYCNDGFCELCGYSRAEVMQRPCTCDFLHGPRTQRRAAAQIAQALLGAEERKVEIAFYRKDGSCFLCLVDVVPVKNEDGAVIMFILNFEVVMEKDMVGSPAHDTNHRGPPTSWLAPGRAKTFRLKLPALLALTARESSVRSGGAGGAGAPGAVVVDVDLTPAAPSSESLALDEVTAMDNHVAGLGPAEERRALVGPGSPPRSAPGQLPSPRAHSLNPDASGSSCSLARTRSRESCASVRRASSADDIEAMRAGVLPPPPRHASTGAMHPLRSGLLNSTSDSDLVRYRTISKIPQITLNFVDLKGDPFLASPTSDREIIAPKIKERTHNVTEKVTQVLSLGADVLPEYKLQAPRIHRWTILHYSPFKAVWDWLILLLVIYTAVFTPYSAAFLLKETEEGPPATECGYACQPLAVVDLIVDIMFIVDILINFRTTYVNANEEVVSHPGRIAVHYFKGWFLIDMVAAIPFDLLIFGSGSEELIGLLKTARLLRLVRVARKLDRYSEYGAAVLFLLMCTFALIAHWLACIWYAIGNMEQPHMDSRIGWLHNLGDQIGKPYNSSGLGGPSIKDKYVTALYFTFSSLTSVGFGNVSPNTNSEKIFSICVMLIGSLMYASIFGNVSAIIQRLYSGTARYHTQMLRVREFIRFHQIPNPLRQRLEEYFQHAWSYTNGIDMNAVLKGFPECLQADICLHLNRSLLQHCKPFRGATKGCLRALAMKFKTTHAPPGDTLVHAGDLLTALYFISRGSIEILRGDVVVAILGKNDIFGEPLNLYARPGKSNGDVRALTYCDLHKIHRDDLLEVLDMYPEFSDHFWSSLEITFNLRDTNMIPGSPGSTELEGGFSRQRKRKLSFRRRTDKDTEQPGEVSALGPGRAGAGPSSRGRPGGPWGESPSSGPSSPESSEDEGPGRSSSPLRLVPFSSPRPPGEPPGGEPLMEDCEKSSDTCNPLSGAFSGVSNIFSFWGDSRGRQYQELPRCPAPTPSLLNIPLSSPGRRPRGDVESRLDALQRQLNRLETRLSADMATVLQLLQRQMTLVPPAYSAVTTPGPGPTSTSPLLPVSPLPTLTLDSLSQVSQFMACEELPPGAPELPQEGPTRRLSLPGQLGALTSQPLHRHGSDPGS
With `CC(=O)N1c2ccc(S(=O)(=O)N3CCC(C(=O)NC(C)c4ccccc4)CC3)cc2CC1C` (stereo not drawn) the “hERG current change (%, negative = inhibition) at 10uM” value was -4.97%.
`COc1ccc(-c2n[nH]c3c2CN(C(=O)c2ccccc2)CC3)cc1` was tested, and the “hERG current change (%, negative = inhibition) at 10uM” value was -6.13%.
With `CC1CC(NC(=O)N(C)C)N(C)C(=O)N1` (stereo not drawn) the “hERG current change (%, negative = inhibition) at 10uM” value was 3.3%.
In the case of `CC1Cc2ccccc2N1c1ncnc2c1nnn2Cc1ccccc1` (stereo not drawn), the “hERG current change (%, negative = inhibition) at 10uM” value is reported as -0.652%.
With `CCCCN(C)CCNS(=O)(=O)c1ccc2c(c1)n(C)c(=O)c(=O)n2C` the “hERG current change (%, negative = inhibition) at 10uM” value was 2.36%.
With `O=C(CCc1nc2ccccc2c(=O)[nH]1)Nc1cc(Cl)ccc1N1CCCCC1` the “hERG current change (%, negative = inhibition) at 10uM” value was 4.58%.
For `Cn1[nH]c(=O)c2ccccc2c1=O`, the “hERG current change (%, negative = inhibition) at 10uM” value was 4.37%.
For `Cc1cc(C)n(C2CC(=O)N(c3ccccc3)C2=O)n1` (stereo not drawn), the “hERG current change (%, negative = inhibition) at 10uM” value was -1.31%.
In the case of `Cc1cc(C)c(OCC(=O)Nc2ccccc2N2CCCCC2)c(C)c1`, the “hERG current change (%, negative = inhibition) at 10uM” value is reported as 4.55%.
With `Cc1ccc(OCCN2CCCC2)cc1.O=C(O)C(=O)O` the “hERG current change (%, negative = inhibition) at 10uM” value was -3.76%.
With `CCOc1ccc(NC(=S)N2CCCCCC2)cc1` the “hERG current change (%, negative = inhibition) at 10uM” value was -0.435%.
In the case of `CC12CN3CCN(CC(C3)/C1=N\NC(=O)Nc1cccc(Cl)c1)C2`, the “hERG current change (%, negative = inhibition) at 10uM” value is reported as -13.5%.
`O=S(=O)(Nc1ncccn1)c1ccc(Nc2ncnc3ccccc23)cc1` was tested, and the “hERG current change (%, negative = inhibition) at 10uM” value was -10.8%.
With `CCc1ccc(NC(=O)c2ccc(S(=O)(=O)NCc3cccnc3)cc2)cc1` the “hERG current change (%, negative = inhibition) at 10uM” value was 0.0585%.
`N=C1C(c2nc3ccccc3[nH]2)=C(O)CN1NC(=O)COc1cccc(F)c1` was tested, and the “hERG current change (%, negative = inhibition) at 10uM” value was -24.9%.
For `CCOc1ccc(CCNC(=O)CCc2nnc3ccc(N4CCOCC4)nn23)cc1`, the “hERG current change (%, negative = inhibition) at 10uM” value was -2.18%.
`O=C(NCc1ccco1)c1ccc(NC(=O)C2COc3ccccc3O2)cc1` (stereo not drawn) was tested, and the “hERG current change (%, negative = inhibition) at 10uM” value was -2.61%.
`COc1ccc(-n2cc(-c3ccccc3)c3c(N4CC(C)OC(C)C4)ncnc32)cc1` (stereo not drawn) was tested, and the “hERG current change (%, negative = inhibition) at 10uM” value was 3.9%.
`C/C(=N\N=C(/N)SC1CC(=O)N(c2ccc(Cl)c(Cl)c2)C1=O)c1cccs1` (stereo not drawn) was tested, and the “hERG current change (%, negative = inhibition) at 10uM” value was 20.3%.
With `Cc1c(C)n(CC(O)CN2CCOCC2)c2ccccc12.O=C(O)C(=O)O` (stereo not drawn) the “hERG current change (%, negative = inhibition) at 10uM” value was -11.9%.
For `COc1ccc(OCc2cc(C(=O)N3CCCC(O)C3)no2)c2ccccc12` (stereo not drawn), the “hERG current change (%, negative = inhibition) at 10uM” value was -13.3%.
In the case of `Nc1nnc(SCCCC(=O)c2ccccc2)s1`, the “hERG current change (%, negative = inhibition) at 10uM” value is reported as 3.13%.
In the case of `COC(=O)c1csc(S(=O)(=O)N2CCOCC2)c1OC`, the “hERG current change (%, negative = inhibition) at 10uM” value is reported as 17.8%.
In the case of `CCOc1cc(/C=N/NC(=O)C(=O)NC)cc(Br)c1O`, the “hERG current change (%, negative = inhibition) at 10uM” value is reported as 19.3%.
For `O=c1cc(O)c(-c2ccccc2)c(Cl)[nH]1`, the “hERG current change (%, negative = inhibition) at 10uM” value was 11%.
For `O=C(c1cnn2ccccc12)N1CCN(C2CCCCC2)CC1`, the “hERG current change (%, negative = inhibition) at 10uM” value was -9.39%.
In the case of `Cc1ccc2nc(NC(=O)C3CCCN(S(=O)(=O)c4cccnc4)C3)sc2c1` (stereo not drawn), the “hERG current change (%, negative = inhibition) at 10uM” value is reported as -1.04%.
For `CS(=O)(=O)N(CC(=O)N1CCOCC1)c1ccccc1`, the “hERG current change (%, negative = inhibition) at 10uM” value was 15.9%.
In the case of `CC(Oc1ccc2c(-c3ccccc3)cc(=O)oc2c1)C(=O)NC(Cc1c[nH]c2ccc(O)cc12)C(=O)O` (stereo not drawn), the “hERG current change (%, negative = inhibition) at 10uM” value is reported as 16.2%.
For `CC1=CC(C)(C)N=C(Nc2ccc(C)cc2)S1`, the “hERG current change (%, negative = inhibition) at 10uM” value was -5.2%.
In the case of `Cc1cccc(Nc2nc(-c3ccc4c(c3)OCCO4)cs2)c1`, the “hERG current change (%, negative = inhibition) at 10uM” value is reported as 10.8%.
`CC(=O)C(Cc1ccc(Cl)nc1)Cc1ccc(Cl)nc1` was tested, and the “hERG current change (%, negative = inhibition) at 10uM” value was 15.1%.
In the case of `Cc1cccc(OCCOCCSc2ncccn2)c1`, the “hERG current change (%, negative = inhibition) at 10uM” value is reported as -9.63%.
In the case of `Fc1ccccc1C1c2cccn2CCN1C(=S)Nc1ccc(Br)cc1` (stereo not drawn), the “hERG current change (%, negative = inhibition) at 10uM” value is reported as 17.8%.
For `COC(=O)Cn1c2[n+](c3ccccc31)CC(O)CS2.[Br-]` (stereo not drawn), the “hERG current change (%, negative = inhibition) at 10uM” value was 5.92%.
With `COc1cc(C(=O)Nc2nnc(CC(C)C)s2)c([N+](=O)[O-])cc1OC` the “hERG current change (%, negative = inhibition) at 10uM” value was 17.1%.
For `COc1cc(/C=N/NC(=O)c2cccc3ccccc23)cc(OC)c1O`, the “hERG current change (%, negative = inhibition) at 10uM” value was -2.75%.
For `CCCCNC(=O)CS(=O)Cc1nc(-c2ccc(C)cc2)oc1C` (stereo not drawn), the “hERG current change (%, negative = inhibition) at 10uM” value was -17.5%.
`O=C(CCn1c(=S)[nH]c2ccccc2c1=O)NCCSCc1ccccc1` was tested, and the “hERG current change (%, negative = inhibition) at 10uM” value was 5.79%.
`C/C(CC(=O)Nc1cccc2c1CCCC2)=N\NC(=O)Cc1ccccc1` was tested, and the “hERG current change (%, negative = inhibition) at 10uM” value was 25.2%.
With `Cc1cccnc1NC(=O)CCNC(=O)c1ccccc1Cl` the “hERG current change (%, negative = inhibition) at 10uM” value was 52.5%.
For `COc1oc(-c2ccccc2)nc1C(F)(F)F`, the “hERG current change (%, negative = inhibition) at 10uM” value was -8.93%.
`COc1ccc(-c2csc(/C(C#N)=C\c3ccc(O)c([N+](=O)[O-])c3)n2)cc1OC` was tested, and the “hERG current change (%, negative = inhibition) at 10uM” value was 9.54%.
`CC(C)C(NC(=O)CN1C(=O)c2cccc3cccc1c23)C(C)C` was tested, and the “hERG current change (%, negative = inhibition) at 10uM” value was 20.1%.
In the case of `C[n+]1c2n(c3ccccc31)N=C(c1cc(C(C)(C)C)c(O)c(C(C)(C)C)c1)CS2.[Br-]`, the “hERG current change (%, negative = inhibition) at 10uM” value is reported as -77.6%.
`COc1ccc(N2CCN(c3nc4c(C)cccn4c(=O)c3/C=C(\C#N)C(N)=O)CC2)cc1` was tested, and the “hERG current change (%, negative = inhibition) at 10uM” value was -23%.
`CC(=O)Nc1ccc2ccccc2c1` was tested, and the “hERG current change (%, negative = inhibition) at 10uM” value was -7.46%.
`Cc1csc(SCc2nc3scc(-c4ccccc4)c3c(=O)[nH]2)n1` was tested, and the “hERG current change (%, negative = inhibition) at 10uM” value was -4.64%.
With `CCCCOC(=O)CSCC(=O)N1N=C(c2cccs2)CC1c1ccc(F)cc1` (stereo not drawn) the “hERG current change (%, negative = inhibition) at 10uM” value was -8.65%.
`Cn1cc(/C=N/NC(=O)c2ccccc2O)c2ccccc21` was tested, and the “hERG current change (%, negative = inhibition) at 10uM” value was 10.2%.
In the case of `Cc1c(C(=O)NCc2ccccc2)oc2ccc(S(=O)(=O)N3CCC4(CC3)OCCO4)cc12`, the “hERG current change (%, negative = inhibition) at 10uM” value is reported as -0.453%.
With `CCCOC(=O)C1=C(C)OC23OC(N)=C(C#N)C12C(=O)c1ccccc13` (stereo not drawn) the “hERG current change (%, negative = inhibition) at 10uM” value was -16.1%.
With `O=C(Nc1ccccc1F)c1ccc2c(c1)CCN2S(=O)(=O)c1ccccc1` the “hERG current change (%, negative = inhibition) at 10uM” value was 19.5%.
`N#C/C(=C(/O)Cc1cccc2ccccc12)c1nc2ccccc2s1` was tested, and the “hERG current change (%, negative = inhibition) at 10uM” value was 22.5%.
In the case of `COc1ccccc1NC(=S)N(Cc1cccnc1)Cc1ccccc1Cl`, the “hERG current change (%, negative = inhibition) at 10uM” value is reported as -33.5%.
In the case of `Cc1ccc(S(=O)(=O)N2CCOC23CCN(C(=O)c2ccc(Cl)cc2Cl)CC3)cc1`, the “hERG current change (%, negative = inhibition) at 10uM” value is reported as -48.1%.
For `Cc1ccc(C)c(NC(=O)NNC(=O)c2cc3ccccc3cc2O)c1`, the “hERG current change (%, negative = inhibition) at 10uM” value was -20.4%.
